# Several values for one entry are separate records, joined by “and”; a condition that tells them apart may be missing. Equal entries are not always repeated. The campaign covered roughly 340,000 compounds. About 6,900 (2%) were called active. No stated cut-off is given here; in the data, active means inhibition above about 30%; inactive means below that, where a call was filed. The list shows a part of the results, in another mix than the full data. Entries without a call were filed so in the source.
# Target: D(2) dopamine receptor (Homo sapiens) (UniProt P14416)
# Assay: HTS Assay for Allosteric Antagonists of the Human D2 Dopamine Receptor: Primary Screen for Antagonists; further: 0% is about no effect
# Conditions: HEK293 TREx D2 cells, calcium flux, dopamine EC80; at 10 µM; stronger effect = higher value
# Procedure, shortened: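 Read-out: kinetic calcium fluorescence (1 cycle/s) in inducible HEK293 T-REx D2 cells after an EC80 dopamine addition that followed 180 s compound preincubation. Loss of the dopamine response indicates antagonism.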
# UniProt P14416, sequence (P14416 whole entry, looked up): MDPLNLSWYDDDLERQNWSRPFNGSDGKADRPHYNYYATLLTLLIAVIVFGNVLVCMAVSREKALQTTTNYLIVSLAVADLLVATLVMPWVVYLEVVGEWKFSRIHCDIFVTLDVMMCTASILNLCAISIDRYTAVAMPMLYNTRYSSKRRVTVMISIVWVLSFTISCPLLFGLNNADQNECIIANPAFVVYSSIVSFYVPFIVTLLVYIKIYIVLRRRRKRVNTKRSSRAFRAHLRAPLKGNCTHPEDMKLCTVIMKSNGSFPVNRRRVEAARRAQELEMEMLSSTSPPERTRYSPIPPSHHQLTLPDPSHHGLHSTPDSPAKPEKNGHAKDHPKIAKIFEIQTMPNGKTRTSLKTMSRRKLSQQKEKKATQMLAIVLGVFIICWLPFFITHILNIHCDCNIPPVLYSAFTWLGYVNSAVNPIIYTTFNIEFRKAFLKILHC
row,Structure (SMILES),inhibition
1,CC(C)OCCCn1c(SCC(=O)Nc2ccc(F)cc2)nc2c(sc3ccccc32)c1=O,17.8%
2,CCCCCOC(=O)CSc1nc2sc3c(c2c(=O)n1Cc1ccccc1)CC(C)(C)OC3,1.87%
3,CC(C)(C)C1CCc2c(sc(NC(=O)Cn3nnc(-c4cccc(C(F)(F)F)c4)n3)c2C#N)C1 (configuration not stated),-11.7%
4,Cn1c(CNC(=O)CSc2n[nH]c(-c3ccccc3)n2)nc2ccccc21,-1.82%
5,O=C(Cn1c(=O)n(-c2ccc(Cl)cc2)c(=O)c2c3c(sc21)CCC3)c1ccc(F)cc1,5.32%
6,CCN1CCSc2ccc(C(=O)NCc3cccc(F)c3)cc21,-2.56% and active: 44.2%
7,COc1ccccc1N1CCN(C(=O)CSc2nc3ccccc3nc2Cc2ccc(F)cc2)CC1,20%
8,CCOC(=O)C1(CCOc2ccccc2)CCN(Cc2ccc(O)c(OCC)c2)CC1,active: 39%
9,Cc1csc2nc(COc3ccc(NC(=O)COc4ccccc4F)cc3)cc(=O)n12,18.5%
10,CC(C(=O)NCc1ccccc1)N1Cc2ccccc2C1=O (configuration not stated),-3.55%
11,CC1CCN(C(=O)CSc2nc(-c3ccc(C(C)C)cc3)no2)CC1,-3.41%
12,CCC1CCCCN1CCCNC(=O)c1ccc2c(c1)N(Cc1ccccc1F)C(=O)c1ccccc1S2(=O)=O (configuration not stated),-3.95%
13,N#Cc1ccc(COC(=O)Cn2nnc(-c3ccccc3)n2)cc1,active: 32.5%
14,CCCS(=O)(=O)N1CC(=O)N(c2ccccc2F)C(C)(C(=O)NC2CCCCCC2)C1 (configuration not stated),-8.03%
15,Cc1ccc(C(=O)Nc2ccc3c(c2)N(C)C(=O)c2ccccc2S3)cc1,-0.643%
16,COc1cc(CNC(=O)CSCc2nc3cccnc3n2C2CCCCC2)cc(OC)c1OC,17.6%
17,Cc1ccc(C)c(NC(=O)CCc2nc(-c3ccc(C(C)(C)C)cc3)no2)c1,-1.61%
18,CCC(=O)N1CCc2cc(CNC(=O)Nc3ccccc3Cl)ccc21,-6.18%
19,O=C(CCNS(=O)(=O)c1ccc2c(c1)CCCC(=O)N2)NCc1ccccc1Cl,-6.58%
20,CCOc1cc(C#N)c(NC(=O)c2cccc(S(=O)(=O)N3CCOCC3)c2)cc1OCC,20.6%
21,COc1ccc(C(=O)Nc2ccc(C(=O)OCC(=O)c3cccc4ccccc34)cc2)cc1,active: 76.4%
22,CCc1ccc(OCC(O)CN2CCN(c3ccccc3)CC2)cc1 (configuration not stated),active: 109%
23,CCCc1ccc(OCC(=O)Nc2scc(-c3cccs3)c2C(=O)OC)cc1,-1.08%
24,CC(C)c1nc(C#N)c(NCCCn2ccnc2)o1,active: 43.4%
25,O=C(c1ccc2c(c1)N(Cc1ccc(F)cc1)CCS2)N1CCN(c2ccccc2)CC1,13.7%

row,Structure (SMILES),inhibition
1,CCc1c(C)sc2c1CCN(C(=O)Nc1ccccc1C(=O)OC)C2c1ccc(F)cc1 (configuration not stated),9.89%
2,CCCC12CN3CC(C)(CN(C1)C3c1ccccc1Cl)C2=O (configuration not stated),6.92%
3,O=C(Nc1ccc(Br)cc1)N1CCC(CN2CCCC2)CC1,27.5%
4,CCNC(=O)c1c(NC(=O)COc2ccc(F)cc2)sc2c1CCCC2,-8.78%
5,COc1ccc(NC(=O)CSc2c3c(nc4ccc(Cl)cc24)CCCC3)cc1Cl,-0.748%
6,CCOc1ccc(C2C(C(=O)Nc3ccc(OC)cc3)=C(C)Nc3nc(SCc4ccc(Cl)cc4)nn32)cc1 (configuration not stated),0.931%
7,Cc1c(Cl)cccc1NC(=O)c1ccc(NC(=O)N2CCSc3ncccc32)cc1,-5.03%
8,Cc1ccccc1NC(=O)CS(=O)(=O)c1cccc2nsnc12,20.2%
9,Cc1ccc(CNC(=O)CSc2c3c(nc4ccc(Cl)cc24)CCCC3)cc1,3.49%
10,Cc1c(C2=CCN(S(=O)(=O)c3ccc(Br)cc3)CC2)c2ccccc2n1CC(=O)N1CCCC1,-0.0957%
11,COc1ccc2nc3oc(C(=O)Nc4cccc(C(F)(F)F)c4)cc3cc2c1,-6.16%
12,Cc1cc(C)cc(NS(=O)(=O)c2ccc3c(c2)OCC(C(=O)N2CCCC2)O3)c1 (configuration not stated),4.18%
13,CCOc1ccc(NC(=O)CN(Cc2ccccc2)S(=O)(=O)c2ccc(Cl)cc2)cc1,4.07%
14,COc1ccc(-n2nc(C(=O)Nc3ccc(Br)cc3C)c3c4ccccc4n(C)c3c2=O)cc1,6.06%
15,CCOc1ccc(C2C=C(c3cccc(OC)c3)Nc3nnnn32)cc1 (configuration not stated),6.28%
16,COc1ccc(C(=O)N2CC(=O)Nc3ccc(C)cc3C2c2ccccc2)cc1OC (configuration not stated),1.22%
17,CCN(C(=O)Cn1c(SCC(=O)Nc2ccc(OC)cc2)nc2ccccc21)c1cccc(C)c1,5.2%
18,CC(C)(C)c1ccc(C(=O)NNc2ncnc3c2cnn3-c2ccccc2)cc1,15.8%
19,O=C(COc1ccccc1)NCC(c1cccs1)S(=O)(=O)c1ccc(Cl)cc1 (configuration not stated),-19.3%
20,Cc1cc(C)n2c(Nc3ccccc3C)c(-c3cccs3)nc2n1,11.9%
21,COc1cccc(C(=O)Nc2ccc(-n3nncc3-c3ccc(Br)cc3)cc2)c1OC,15.7%
22,COc1ccc(OCC(=O)N2CCN(C(=O)c3cc(OC)c(OC)c(OC)c3)CC2)cc1,-9.75%
23,CCOc1ccccc1NC(=O)N(C)CCc1c(C)nn(CC)c1C,-0.489%
24,Cc1ccc(NC(=O)c2ccc(=O)n(CC(=O)Nc3c(C)cc(C)cc3C)n2)cc1,-11.5%
25,Oc1ccc(N2CCN(Cc3ccc(OCCCN4CCCCC4)cc3)CC2)cc1,active: 91.3%

row,Structure (SMILES),inhibition
1,Cc1ccc(COc2ccc3oc(-c4ccccc4)c(C(=O)O)c3c2)cc1,10.5%
2,Cc1oc2ncnc(N3CCOCC3)c2c1C(=O)N1CCN(c2cccc(C(F)(F)F)c2)CC1,3.89%
3,Cc1ccc(Oc2nc3c(c(=O)n(Cc4ccccc4)c(=O)n3C)n2C)cc1C,10.3%
4,COc1cccc(-c2ccnc3c(-c4ccc(F)cc4)c(C)nn23)c1,3.49%
5,CCCn1c(=N)c(C(=O)NCc2cccnc2)cc2c(=O)n3cccc(C)c3nc21,10.6%
6,COc1ccc(NC(=O)C2=C(C)Nc3ncnn3C2c2ccc(C)o2)cc1 (configuration not stated),-26.5%
7,CC1(C)CC(=O)c2cc(C(=O)Nc3ccc(Br)cc3)c(=O)[nH]c2C1,16.1%
8,CCN(C(=O)C1CCC(CNS(=O)(=O)c2cccc3nsnc23)CC1)c1ccccc1 (configuration not stated),16.1%
9,CCN(C(=O)C1CCC(CNS(=O)(=O)c2cccc3nsnc23)CC1)c1cccc(C)c1 (configuration not stated),-1.88%
10,Cc1cc(C)cc(NC(=O)Cn2c(=O)n(C(C)C)c(=O)c3oc4ccccc4c32)c1,0.0976%
11,O=C(Cc1ccc(NC(=O)N2CCSc3ncccc32)cc1)NCc1ccccc1,0.138%
12,Cc1ccc(S(=O)(=O)N(CC(O)Cn2c3ccccc3c3ccccc32)c2cccc(C(=O)N(C)C)c2)cc1 (configuration not stated),6.03%
13,COc1ccc(C2=NN(S(C)(=O)=O)C(c3cn(-c4ccccc4)nc3-c3cccs3)C2)cc1 (configuration not stated),-10.3%
14,C#CCN1C(=O)C(O)(CC(=O)c2ccc(OC)c(OC)c2)c2cc(Br)ccc21 (configuration not stated),-21.1%
15,COc1ccc(C(=O)NCC(c2ccc3c(c2)OCO3)N2CCOCC2)cc1 (configuration not stated),-28.1%
16,Cc1ccc(CN2C(=O)c3ccccc3Sc3ccc(C(=O)NCc4ccco4)cc32)cc1,-18.1%
17,Cc1cc(C)c(NS(=O)(=O)c2ccc3c(c2)NC(=O)CCS3)c(C)c1,0.692%
18,O=C(COc1ccc(Cl)cc1)N(Cc1ccco1)c1ccccn1,-9.21%
19,CC1CCCN(Cc2c(O)ccc3c(=O)c(-c4ccccc4Cl)c(C(F)(F)F)oc23)C1 (configuration not stated),1.42%
20,O=C(NC1CCCC1)c1ccc(CSc2nc3cccnc3n2Cc2ccccc2F)cc1,-2.61%
21,O=C(Cn1c(-c2cccs2)cc2ccccc21)NCCCN1CCN(c2ccc(F)cc2)CC1,0.202%
22,CCCCCOc1ccccc1Cn1c(=O)oc2ccc(C)cc21,-0.951%
23,COCCNC(=O)CCSc1nc(-c2ccc(OC)cc2)cc(C(F)(F)F)n1,-14.6%
24,Cc1ccc(Nc2c(-c3ccc(N4CCOCC4)cc3)nc3ncccn23)c(C)c1,-6.01%
25,CC(=O)c1ccc(NC(=O)CSc2nnc(NC(=O)NC3CCCCC3)s2)cc1,22.6%

row,Structure (SMILES),inhibition
1,Cc1ccn2c(Nc3ccc(C(C)C)cc3)c(-c3ccsc3)nc2c1,-4.89%
2,CC(C)OCCCNC(=O)c1c2c(nc3ccccc13)C(=O)N(C1CCCCC1)C2,2.13%
3,COc1cccc(/C=C/C(=O)OCC(=O)Nc2cc(C(F)(F)F)ccc2Cl)c1,active: 34.3%
4,Cc1cccc(Cn2c(CNC(=O)c3ccccc3)nc3ccccc32)c1,21.5%
5,CCOC(=O)c1cc(-c2ccccc2)n(CC(=O)Nc2cc(Cl)c(OC)cc2OC)c1C,-2.61%
6,Cc1cc(C)c(NC(=O)Nc2sc3nc4n(c(=O)c3c2C)CCC(C)CC4)c(C)c1 (configuration not stated),-10%
7,Cc1cc(C)cc(Nc2ncnc3sc4c(c23)CCCC4)c1,-3.33%
8,COc1c(Cl)cc(Cl)cc1C(=O)Nc1cccc2cccnc12,8.56%
9,CCc1cccc(NC(=O)CSc2nccn2C)c1,-20.1%
10,CCOC(=O)c1cc(S(=O)(=O)Nc2cc(C)c(Cl)cc2OC)[nH]n1,3.22%
11,Cc1ccc(C(=O)Nc2cccc(C(F)(F)F)c2)cc1Nc1cnccn1,active: 58.6%
12,COc1ccc(NCc2cccn2-c2nnc(N3CCC(C)CC3)s2)c(OC)c1,9.9%
13,CCc1ccc(NC(=O)C(=O)NCCc2sc(-c3ccc(C)cc3)nc2C)cc1,1.4%
14,O=C(CSc1nc2c(c(=O)[nH]1)CCC2)Nc1cc(C(F)(F)F)ccc1Cl,7.25%
15,CSc1ccc(-c2nc3cc(C)ccn3c2Nc2ccc(C)cc2)cc1,-4%
16,Cc1cccc(-c2nc(S(=O)(=O)c3ccccc3)c(N3CCN(c4ccccc4)CC3)o2)c1,11.3%
17,O=C(NCC1CCCO1)c1cc(S(=O)(=O)Nc2ccc(Br)cc2)ccc1Cl (configuration not stated),active: 52.5%
18,CCOCCn1c(=NC(=O)c2ccc3c(c2)OCCO3)sc2cc(OCC)ccc21,9%
19,COCC(C)NC(=O)C1=CC(c2ccc3c(c2)OCO3)=NS(=O)(=O)N1C (configuration not stated),4.35%
20,CCC(C(=O)NC1CCCCC1)n1nc(C)c2sc3ccccc3c2c1=O (configuration not stated),4.48%
21,COc1ccc(S(=O)(=O)N2CCC(c3nnnn3-c3ccccc3)CC2)cc1OC,13.1%
22,Cc1ccc(Cl)cc1N1CCN(C(=O)c2cnc3c(-c4ccc(F)cc4)c(C)nn3c2C)CC1,-8.4%

# Reference: PubChem BioAssay AID485344 (National Center for Advancing Translational Sciences (NCATS), 2010)
